One molecule from patent US20240115549A1, “TREATMENT OF MENTAL DISORDERS” (GH Research Ireland Limited, priority 2022, published 2024) can be followed below.

For this data set, the system named is patients with treatment-resistant major depressive disorder (TRD). Briefly: Phase 1/2 clinical trial of inhaled 5-MeO-DMT in TRD patients.

Each structure is given as a SMILES string.

Turning to `COc1ccc2[nH]cc(CCN(C)C)c2c1` [5-MeO-DMT], the Serious adverse events result (Part A) is recorded as “No SAEs were reported” and the Serious adverse events entry (Part B) is “No SAEs were reported”. For the same molecule, the “Changes in safety laboratory analyses, vital signs, psychiatric safety assessments, cognitive function” value (Part A and Part B) was “No clinically significant changes”. The “Patients with at least one ADR” value by setting is: (Part A, 12 mg) 3 of 4; (Part A, 18 mg) 3 of 4. Also, for the setting “TRD patients”, the Hypomania induction entry is given as “no evidence of hypomania induction”.
